In PubChem BioAssay (NCI):
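Test compounds were applied to cells in 96-well plates for 48 hours at 5 doses. At the GI50, growth is halved. The concentration for full growth arrest is given as TGI.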

Tested on: NCI-H322M lung
Test: inhibition of tumour cell growth, NCI panel, 48 h

Compared with `CS(=O)(=O)Nc1ccc(-c2ccc3c(c2)ncn3-c2ccc(NC(=O)Nc3ccc(Cl)c(C(F)(F)F)c3)cc2)cc1`, `COc1ccc(-c2nnc3c(/C=C/c4ccc(Br)cc4)nc4ccccc4n23)cc1` is 4.5-fold higher in GI50: 3.63 µM for the first, 16.4 µM for the second.

First: COc1cccc(C(N)=Nc2ccc(OCCCCCCCCn3cncn3)cc2)c1
Second: O=C1Nc2cc(Cl)ccc2/C1=C/c1cccc(OCc2ccccn2)c1
The GI50 of the first is 23-fold lower: 0.676 µM for the first, 15.6 µM for the second.

In the case of `COc1cc2c(c(OC)c1OC)C(=O)CC(c1cccc(NC(=O)c3cccc([N+](=O)[O-])c3)c1)O2` (stereo not given), the GI50 is reported as 66.6 µM.

Compared with `CS(=O)(=O)Nc1ccc(-c2ccc3c(c2)ncn3-c2ccc(NC(=O)Nc3ccc(Cl)c(C(F)(F)F)c3)cc2)cc1`, `COc1ccc(-c2nnc3c(/C=C/c4ccc(Br)cc4)nc4ccccc4n23)cc1` is 2.7-fold higher in TGI: 14.2 µM for the first, 39 µM for the second.

Compared with `COc1cccc(C(N)=Nc2ccc(OCCCCCCCCn3cncn3)cc2)c1`, `O=C1Nc2cc(Cl)ccc2/C1=C/c1cccc(OCc2ccccn2)c1` is lower in TGI: over 100 µM for the first, 78.5 µM for the second.

For `COc1cc2c(c(OC)c1OC)C(=O)CC(c1cccc(NC(=O)c3cccc([N+](=O)[O-])c3)c1)O2` (stereo not given), the TGI was over 100 µM.
